153 variants from a collection of fitness landscapes (doi:10.1126/science.1257360) can be followed below.

To fix the notation:
B1: PhoQ; a variant is named by its letters at X, in order, P23837 (parent)
chain: MKKLLRLFFPLSLRVRFLLATAAVVLVLSLAYGMVALIGYSVSFDKTTFRLLRGESNLFYTLAKWENNKLHVELPENIDKQSPTMTLIYDENGQLLWAQRDVPWLMKMIQPDWLKSNGFHEIEADVNDTSLLLSGDHSIQQQLQEVREDDDDAEMTHSVAVNVYPATSRMPKLTIVVVDTIPVELKSSYMVWSWFIYVLSANLLLVIPLLWVAAWWSLRPIEALAKEVRELEEHNRELLNPATTRELTSLVRNLNRLLKSERERYDKYRTTLTDLTHSLKTPLXXLQXXLRSLRSEKMSVSDAEPVMLEQISRISQQIGYYLHRASMRGGTLLSRELHPVAPLLDNLTSALNKVYQRKGVNISLDISPEISFVGEQNDFVEVMGNVLDNACKYCLEFVEISARQTDEHLYIVVEDDGPGIPLSKREVIFDRGQRVDTLRPGQGVGLAVAREITEQYEGKIVAGESMLGGARMEVIFGRQHSAPKDE

This is one part of the list.

Variants of B1 are the subject of the experiment. The experiment can be described thus: enrichment ratio after two sorts for PhoP signalling (ratio (wild type AVST 3.29)); higher = more functional. To be noted: with PhoP (E. coli).
Turning to GWVK, the enrichment ratio was at most 0.25. GRYM: the enrichment ratio is at most 0.25. Turning to RSEA, the enrichment ratio is at most 0.25. With FRGY, the enrichment ratio is at most 0.25. With MMMS, the enrichment ratio is at most 0.25.

Regarding RQCY, the enrichment ratio is at most 0.25. Turning to EEST, the enrichment ratio is at most 0.25.

Consider ANTC, for which the enrichment ratio was 63.

As for MTEW, the enrichment ratio was at most 0.25. Take FRRS: the enrichment ratio was at most 0.25.

On to MDQQ, for which the enrichment ratio was at most 0.25. With FWTI, the enrichment ratio was at most 0.25.

For the variant LLLV, the enrichment ratio was at most 0.25.

SIGW: the enrichment ratio is 11.7. For EVCN, the enrichment ratio was at most 0.25. Regarding SCLQ, the enrichment ratio was 10.8.

Consider QMFR, for which the enrichment ratio was at most 0.25. As for FWPQ, the enrichment ratio is at most 0.25. In the case of DTRM, the enrichment ratio is at most 0.25. In the case of IVAY it was at most 0.25. As for ATQA, the enrichment ratio is at most 0.25. With QALT, the enrichment ratio turned out to be 2.21. For PHVR, the enrichment ratio is at most 0.25.

On to HIMS, for which the enrichment ratio is at most 0.25. For QHKH, the enrichment ratio was at most 0.25. As to KSNF, the enrichment ratio was at most 0.25. As for QYYW, the enrichment ratio is at most 0.25.

Take SWED: the enrichment ratio was at most 0.25.

On to TEQN, for which the enrichment ratio was determined as 34.8.

As for MGSA, the enrichment ratio was at most 0.25. For SVWP the value was at most 0.25; for ICWL, at most 0.25; for SMPQ, at most 0.25. For YEVP the value was at most 0.25. In the case of LVLG, the enrichment ratio was at most 0.25. For WGTF, the enrichment ratio was at most 0.25. In the case of KLDY it was at most 0.25. In the case of NFAP it was at most 0.25. For KCVY the value was at most 0.25; for PFKY, at most 0.25. Regarding LATW, the enrichment ratio is at most 0.25. With RPLV, the enrichment ratio is at most 0.25. For NHYN the value was at most 0.25; for ADYS, at most 0.25; for VSAT, at most 0.25. In the case of NDDP, the enrichment ratio was at most 0.25. Regarding LVQA, the enrichment ratio is at most 0.25. For RGST the value was at most 0.25; for WDIS, at most 0.25; for MNHV, at most 0.25. NSWD: the enrichment ratio is at most 0.25. With PVKY, the enrichment ratio was at most 0.25. In the case of DAGF, the enrichment ratio was at most 0.25. For the variant RAMS, the enrichment ratio was at most 0.25. As for DCGT, the enrichment ratio is at most 0.25. Turning to DINN, the enrichment ratio was at most 0.25. Regarding EAGS, the enrichment ratio is at most 0.25.

In the case of FTDA, the enrichment ratio was at most 0.25. Take KDAQ: the enrichment ratio was at most 0.25. Consider HRWI, for which the enrichment ratio is at most 0.25. For QNHT the value was at most 0.25; for TTDD, at most 0.25. For the variant ECTR, the enrichment ratio is at most 0.25. In the case of GQAQ it was at most 0.25. Consider QDDR, for which the enrichment ratio is at most 0.25. Turning to RLAI, the enrichment ratio is at most 0.25. In the case of INCG, the enrichment ratio was at most 0.25. For PQHC the value was at most 0.25; for SYYD, at most 0.25. As to TCFS, the enrichment ratio was at most 0.25. As for PRRQ, the enrichment ratio was at most 0.25.

On to EMHF, for which the enrichment ratio is at most 0.25. For MYYE, the enrichment ratio is at most 0.25. Turning to GTPP, the enrichment ratio is at most 0.25.

FCCR: the enrichment ratio was at most 0.25. For the variant VHHW, the enrichment ratio is at most 0.25. Turning to GMYF, the enrichment ratio is at most 0.25. As to RNYY, the enrichment ratio is at most 0.25. In the case of ISMW it was at most 0.25. In the case of KMAR, the enrichment ratio was at most 0.25. For SQWI, the enrichment ratio is at most 0.25. QCYA: the enrichment ratio is at most 0.25. Regarding HNNR, the enrichment ratio is at most 0.25.

With PGKI, the enrichment ratio was at most 0.25. For PYEI the value was at most 0.25; for TIMG, 3.15. For FAIC, the enrichment ratio is at most 0.25. ENPM: the enrichment ratio is at most 0.25. In the case of KSRW, the enrichment ratio was at most 0.25. HVTP: the enrichment ratio is at most 0.25.

As for FNTR, the enrichment ratio is at most 0.25. As for DRQM, the enrichment ratio was at most 0.25.

For YPRH, the enrichment ratio was at most 0.25. For GHER the value was at most 0.25; for TTYI, 6.16. Regarding NQGT, the enrichment ratio was at most 0.25. In the case of ADYL it was at most 0.25; in that of MAWG, at most 0.25; in that of KELM, at most 0.25. In the case of QCTT it was at most 0.25; in that of SSNY, 7.35.

Turning to LRYD, the enrichment ratio is at most 0.25. For TWFS, the enrichment ratio was at most 0.25. Regarding FVDS, the enrichment ratio is at most 0.25.

Take RDNS: the enrichment ratio was at most 0.25. In the case of DQLQ it was at most 0.25. As to DSDS, the enrichment ratio is at most 0.25. For NTSS the value was at most 0.25; for ARPY, at most 0.25. In the case of TRRD it was at most 0.25; in that of LASG, 0.329. In the case of QGIN it was at most 0.25; in that of IDVF, at most 0.25. Regarding TIHL, the enrichment ratio was 4.04. For SIQF the value was 11.1; for WCMW, at most 0.25; for DFFL, at most 0.25.

Consider NAEL, for which the enrichment ratio was at most 0.25. For KSNS the value was at most 0.25; for YKYN, at most 0.25. Regarding YKNI, the enrichment ratio is at most 0.25. In the case of QAKF, the enrichment ratio was at most 0.25. In the case of KNSV it was at most 0.25; in that of PAMS, at most 0.25. Take GSME: the enrichment ratio was at most 0.25. LITC: the enrichment ratio was at most 0.25. For the variant NVCY, the enrichment ratio is at most 0.25. As to MHYT, the enrichment ratio is at most 0.25.

With AINN, the enrichment ratio is at most 0.25. As for SQKA, the enrichment ratio is at most 0.25. Take DRHD: the enrichment ratio was at most 0.25. For RYKY the value was at most 0.25; for RPEP, at most 0.25. In the case of KTIT it was at most 0.25; in that of QHEL, at most 0.25. Regarding YKST, the enrichment ratio came to 0.557.

Take HSNT: the enrichment ratio is at most 0.25.

Regarding YMRI, the enrichment ratio was at most 0.25. For EKMW the value was at most 0.25. For ATYM the value was at most 0.25. Turning to ERCS, the enrichment ratio was at most 0.25. For the variant ECAY, the enrichment ratio was at most 0.25.

In the case of TSKH, the enrichment ratio was at most 0.25.

Consider NHAV, for which the enrichment ratio was at most 0.25. As to VCCC, the enrichment ratio was at most 0.25. Regarding KCHS, the enrichment ratio is at most 0.25. For GIRF the value was at most 0.25; for QRQH, at most 0.25. In the case of KFDI it was at most 0.25; in that of AKCL, 3.3. With IGRV, the enrichment ratio is at most 0.25.

In the case of IPSK, the enrichment ratio is at most 0.25.

With PNLA, the enrichment ratio is at most 0.25.
